Measurements as given in the supplement of paper PMC4967469.

How the values were obtained:
Assay in all cases: Viability of human cancer cell lines after 72 h of drug (GDSC screen)
[1] = compound: NCC(=O)Nc1ccc(-n2nc(C(F)(F)F)cc2-c2ccc3c(ccc4ccccc43)c2)cc1 [OSU-03012]; settings: top dose 16 µM; top dose inferred
Description: (§1)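 Human cancer cell lines in 384-well plates, medium with 10% serum, drug for 72 h over a 256-fold dose range (nine 2-fold or five 4-fold steps up to the top dose). Adherent lines were fixed and stained with the nucleic acid dye Syto60, suspension lines read with resazurin; signal relative to control wells, capped at 0 and 100%. One two-parameter sigmoid per drug and line, fitted in a mixed model over all curves with the slope shared within a line.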

[2] = compound: OC[C@H](Cc1ccccc1)Nc1nc(Oc2ccc3c(c2)CCC3)nc2c1ncn2Cc1ccc(-c2ccccc2)cc1 [QS11]; settings: top dose 10.24 µM
Description: as §1

[3] = compound: CC(C)(C)c1cc(NC(=O)Nc2ccc(-c3cn4c(n3)sc3cc(OCCN5CCOCC5)ccc34)cc2)no1 [AC220]; settings: top dose 1.024 µM; top dose inferred
Description: as §1

[4] = compound: Fc1cc(-c2ccnc(Nc3ccc(-n4cnc(N5CCOCC5)n4)cc3)n2)cc(N2CCOCC2)c1 [JNK-9L]; settings: top dose 5.12 µM; top dose inferred
Description: as §1

[5] = compound: C#Cc1cccc(Nc2ncnc3cc(OC)c(OCCCCCCC(=O)NO)cc23)c1 [CUDC-101]; settings: top dose 5.12 µM; top dose inferred
Description: as §1

[6] = compound: COc1cc(F)c(F)c(Nc2ccc(I)cc2F)c1NS(=O)(=O)C1(C[C@H](O)CO)CC1 [RDEA119]; settings: top dose 5 µM, top dose inferred
Description: as §1

[7] = compound: O=c1[nH]cc(F)c(=O)[nH]1 [5-Fluorouracil]; settings: top dose 32 µM; top dose inferred
Description: as §1

Row | Cell Line | AUC [1] | pIC50 [1] | AUC [2] | pIC50 [2] | AUC [3] | pIC50 [3] | AUC [4] | pIC50 [4] | AUC [5] | pIC50 [5] | AUC ([6]; screen: GDSC drug entry 1014) | pIC50 ([6]; screen: GDSC drug entry 1014) | AUC ([6]; screen: GDSC drug entry 1526) | pIC50 ([6]; screen: GDSC drug entry 1526) | AUC [7] | pIC50 [7]
1 | A4-Fuk (B-cell lymphoma, suspension) | 0.687 | 5.46 | 0.929 | < 4.99 | 0.985 | < 5.99 | 0.562 | 6.32 | 0.824 | 5.49 | 0.66 | 6.05 | 0.876 | < 5.30 | 0.486 | 5.74
2 | NCI-H841 (small cell lung carcinoma, adherent) | 0.872 | 4.82 | 0.988 | < 4.99 | 0.973 | < 5.99 | 0.86 | 5.36 | 0.873 | 5.30 | 0.912 | < 5.30 | 0.967 | < 5.30 | 0.917 | < 4.49
3 | NCI-H2227 (small cell lung carcinoma, semi-adherent) | 0.812 | 5.00 | 0.986 | < 4.99 | 0.98 | < 5.99 | 0.948 | < 5.29 | 0.153 | 7.65 | 0.836 | 5.41 | 0.974 | < 5.30 | 0.913 | < 4.49
4 | OVISE (ovary, adherent) | 0.86 | < 4.80 | 0.97 | < 4.99 | 0.98 | < 5.99 | 0.683 | 5.91 | 0.55 | 6.34 | 0.739 | 5.72 | 0.885 | < 5.30 | 0.826 | 4.54
5 | KOPN-8 (B-cell leukaemia, suspension) | 0.651 | 5.61 | 0.861 | 5.17 | 0.936 | < 5.99 | 0.579 | 6.29 | 0.165 | 7.42 | 0.663 | 6.08 | 0.967 | < 5.30 | 0.512 | 5.67
6 | ML-1 (thyroid, adherent) | 0.653 | 5.54 | 0.908 | < 4.99 | 0.982 | < 5.99 | 0.488 | 6.53 | 0.505 | 6.48 |  |  | 0.845 | 5.34 | 0.976 | < 4.49
7 | K5 (thyroid, adherent) | 0.827 | 5.04 | 0.937 | < 4.99 | 0.988 | < 5.99 | 0.613 | 6.19 | 0.617 | 6.18 |  |  | 0.302 | 7.05 | 0.923 | < 4.49
8 | H3255 (lung adenocarcinoma, adherent) | 0.963 | < 4.80 | 0.956 | < 4.99 | 0.978 | < 5.99 | 0.688 | 5.92 | 0.334 | 7.00 | 0.848 | 5.31 | 0.89 | < 5.30 | 0.975 | < 4.49
9 | HO-1-N-1 (head and neck, adherent) | 0.816 | 5.10 | 0.986 | < 4.99 | 0.987 | < 5.99 | 0.557 | 6.35 | 0.66 | 6.07 |  |  | 0.715 | 5.92 | 0.912 | < 4.49

pIC50: −log10 of the molar value. A lower IC50 marks a more sensitive line; fits outside the tested doses are given as limits. For AUC the same curve is integrated over the 256-fold range of doses and scaled to a fraction: 1 means no effect, lower means more sensitive. For part of these data: Where the top dose is marked as inferred, it was calculated from the reported fits. For part of these data: Where an entry number is given, a second screen of the drug exists; the two often differ.
